Assay results published in the supplement of paper PMC12355420.
Counter-ions that a name gives are not always drawn. This is one part of the list. Rule as the data show it: active = 0.5 or less and inactive = the rest. Many values rest on one well or one pass, so single values are uncertain.

What was measured:
Conditions in all cases: 50 µM; 24 h
[1] = test system: HeLa VPS33A reporter cells; assay: relative cell viability (CellMask signal) vs DMSO (fraction of DMSO); higher = less cytotoxic;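 also: primary screen of an FDA-approved drug library in HeLa reporter cells in 96-well format, CellMask signal normalized to DMSO-treated wells set as 1, under 0.5 deemed highly cytotoxic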
[2] = test system: HeLa VPS33A R498W KI + HA-SDC1-FLAG; assay: relative GAG core protein HA-SDC1 amount per cell number vs DMSO (fraction of DMSO); higher = more SDC1 (GAG core protein);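 also: HA-SDC1 level read out by In-Cell Western staining with an anti-HA antibody against the N-terminal tag, screening FDA-approved library drugs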
[3] = test system: HeLa VPS33A KO + NLuc-VPS33A R498W; assay: relative mutant VPS33A R498W amount (NanoLuc luminescence) vs DMSO (fraction of DMSO); HeLa model of a glycosaminoglycan (GAG) storage disease; KI is knock-in and KO knock-out; SDC1 is syndecan 1; higher = higher mutant VPS33A level;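 also: screen of an FDA-approved drug library, NanoLuc luminescence read after lysing the treated cells, taken as a measure of mutant VPS33A protein stability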

SMILES	relative cell viability [1]	relative GAG core protein HA-SDC1 amount per cell number [2]	relative mutant VPS33A R498W amount [3]
Clc1cccc(Cl)c1NC1=NCCN1 [Clonidine HCl]	1.31	inactive: 0.788	1.1
COc1ccc2c3c1O[C@H]1C[C@@H](O)C=C[C@@]31CCN(C)C2 [Galanthamine]	1.42	inactive: 1.11	1.03
CCC(=O)O[C@]1(C(=O)CCl)[C@@H](C)C[C@H]2[C@@H]3CCC4=CC(=O)C=C[C@]4(C)[C@@]3(F)[C@@H](O)C[C@@]21C [Clobetasol propionate]	1.05	inactive: 0.508	0.444
O=c1oc2cc(O)ccc2s1 [Tioxolone]	0.819	active: 0.492	0.704
O=C(c1ccccc1)c1ccc2n1CCC2C(=O)O (stereo unspecified) [Ketorolac tromethamine salt]	1.44	inactive: 0.671	1.13
Cn1cnc([N+](=O)[O-])c1Sc1ncnc2[nH]cnc12 [Azathioprine]	1.06	inactive: 0.807	6.23
CC(C(=O)O)c1ccc2c(c1)Cc1cccnc1O2 (stereo unspecified) [Pranoprofen]	1.04	inactive: 0.899	1.14
C[C@H]1[C@H](C)CC[C@]2(C(=O)O[C@@H]3O[C@H](CO[C@@H]4O[C@H](CO)[C@@H](O[C@@H]5O[C@@H](C)[C@H](O)[C@@H](O)[C@H]5O)[C@H](O)[C@H]4O)[C@@H](O)[C@H](O)[C@H]3O)CC[C@]3(C)C(=CC[C@@H]4[C@@]5(C)C[C@@H](O)[C@H](O)[C@@](C)(CO)[C@@H]5[C@H](O)C[C@]43C)[C@H]12 [Madecassoside]	1.09	inactive: 0.898	1.33
N#Cc1ccc(Oc2ccc3c(c2)COB3O)cc1	1.09	inactive: 1.04	1.01
CC(=O)CCCCn1c(=O)c2c(ncn2C)n(C)c1=O [Pentoxifylline]	1	inactive: 0.987	1.14
CCCCCOc1ccc(-c2cc(-c3ccc(C(=O)N[C@H]4C[C@@H](O)[C@@H](O)NC(=O)[C@@H]5[C@@H](O)[C@@H](C)CN5C(=O)[C@H]([C@H](O)CC(N)=O)NC(=O)[C@H]([C@H](O)[C@@H](O)c5ccc(O)c(OS(=O)(=O)O)c5)NC(=O)[C@@H]5C[C@@H](O)CN5C(=O)[C@H]([C@@H](C)O)NC4=O)cc3)no2)cc1 [Micafungin sodium]	1.08	inactive: 1.68	1.3
Cc1c(OCC(F)(F)F)ccnc1C[S+]([O-])c1nc2ccccc2[nH]1 (stereo unspecified) [Lansoprazole]	1.04	inactive: 0.645	0.844
C=C1CC[C@H](O)C/C1=C/C=C1\CCC[C@]2(C)[C@@H]([C@H](C)/C=C/[C@H](C)C(C)C)CC[C@@H]12 [Vitamin D2 (Ergocalciferol)]	1.19	inactive: 0.541	0.663
NCCC(O)(P(=O)(O)O)P(=O)(O)O [Pamidronate]	0.754	inactive: 1.19	1.08
C[C@@H]1C[C@H]2[C@@H]3CCC4=CC(=O)C=C[C@]4(C)[C@@]3(F)[C@@H](O)C[C@]2(C)[C@@]1(O)C(=O)CO [Dexamethasone (DHAP)]	1.2	inactive: 1.56	1.17
C[C@]12CC[C@@H]3c4ccc(O)cc4C[C@@H](CCCCCCCCC[S+]([O-])CCCC(F)(F)C(F)(F)F)[C@H]3[C@@H]1CC[C@@H]2O (stereo partly specified) [Fulvestrant]	1.04	inactive: 1.12	0.935
Cc1ccccc1N1C(=O)c2cc(S(N)(=O)=O)c(Cl)cc2NC1C (stereo unspecified) [Metolazone]	0.939	inactive: 0.924	0.97
CC#CCn1c(N2CCC[C@@H](N)C2)nc2c1c(=O)n(Cc1nc(C)c3ccccc3n1)c(=O)n2C [Linagliptin (BI-1356)]	0.91	inactive: 0.926	0.774
O=C(O)CCCCC1CCSS1 (racemic) [DL-α-Lipoic Acid]	0.966	inactive: 0.935	1.71
Oc1ccc(OCc2ccccc2)cc1 [Monobenzone]	1.02	inactive: 0.816	0.557
N=C(N)NCCN1CCCCCCC1 [Guanethidine (sulfate)]	1.14	inactive: 0.92	0.924
CCc1oc2ccccc2c1C(=O)c1cc(Br)c(O)c(Br)c1 [Benzbromarone]	0.904	active: 0.351	1.15
C[C@H](C(=O)O)c1ccc(-c2ccccc2)c(F)c1 [(S)-Flurbiprofen]	1.01	inactive: 0.779	1.2
CC(=O)[C@H]1CC[C@H]2[C@@H]3CCC4=CC(=O)CC[C@]4(C)[C@H]3CC[C@]12C [Progesterone]	1.04	inactive: 1.02	0.81
Nc1cccc2c1CN(C1CCC(=O)NC1=O)C2=O (stereo unspecified) [Lenalidomide (CC-5013)]	1.28	inactive: 1.01	0.8
CCCCNC(=O)NS(=O)(=O)c1ccc(C)cc1 [Tolbutamide]	1.04	inactive: 0.819	1.45

SMILES	relative cell viability [1]	relative GAG core protein HA-SDC1 amount per cell number [2]	relative mutant VPS33A R498W amount [3]
CCCCCCCC/C=C\CCCCCCCC(=O)O [Oleic Acid]	0.918	inactive: 1.1	1.46
Cc1cn([C@H]2C[C@H](O)[C@@H](CO)O2)c(=O)[nH]c1=O [Thymidine]	1.1	inactive: 0.63	1.17
CN1CCC(=C2c3ccccc3CC(=O)c3sccc32)CC1 [Ketotifen Fumarate]	1.12	inactive: 0.929	0.889
CC(/C=C1\SC(=S)N(CC(=O)O)C1=O)=C\c1ccccc1 [Epalrestat]	0.865	inactive: 1.1	1.2
C[C@@H](O)[C@H]1C(=O)N2C(C(=O)O)=C(S[C@@H]3CN[C@H](C(=O)N(C)C)C3)[C@H](C)[C@H]12 [Meropenem]	0.964	inactive: 1.4	1.19
Nc1ccc(/N=N/c2ccccc2)c(N)n1 [Phenazopyridine HCl]	0.836	inactive: 0.715	0.437
C[C@@H]1C/C=C/C=C/C=C/C=C/[C@H](O[C@@H]2O[C@H](C)[C@@H](O)[C@H](N)[C@@H]2O)C[C@@H]2O[C@](O)(C[C@@H](O)C[C@H]3O[C@@H]3/C=C/C(=O)O1)C[C@H](O)[C@H]2C(=O)O [Natamycin]	1.01	inactive: 0.95	1.35
CC[C@H]1OC(=O)[C@H](C)[C@@H](O[C@H]2C[C@@](C)(OC)[C@@H](O)[C@H](C)O2)[C@H](C)[C@@H](O[C@@H]2O[C@H](C)C[C@H](N(C)C)[C@H]2O)[C@](C)(OC)C[C@@H](C)C(=O)[C@H](C)[C@@H](O)[C@]1(C)O [Clarithromycin]	1.01	inactive: 1.08	1.02
Nc1ccn([C@@H]2O[C@H](CO)[C@@H](O)[C@H]2O)c(=O)n1 [Cytidine]	1.05	inactive: 0.92	0.997
NC(=O)c1ncn([C@@H]2O[C@H](CO)[C@@H](O)[C@H]2O)c1O [Mizoribine]	0.934	inactive: 1.59	1.24
O=c1sn(-c2cccc3ccccc23)c(=O)n1Cc1ccccc1 [Tideglusib]	1.25	inactive: 1.26	1.32
Cn1c(=O)c2c(ncn2CC2OCCO2)n(C)c1=O [Doxofylline]	0.935	inactive: 1.02	1.13
CC(=O)N[C@H]1[C@H]([C@H](O)[C@H](O)CO)OC(O)(C(=O)O)C[C@@H]1O (stereo partly specified) [N-Acetylneuraminic acid]	1.06	inactive: 0.999	1.01
Nc1ccc(S(=O)(=O)Nc2ccnn2-c2ccccc2)cc1 [Sulfaphenazole]	1.02	inactive: 0.794	1.39
CCNC(=O)[C@@H]1CCCN1C(=O)[C@H](CCCN=C(N)N)NC(=O)[C@H](CC(C)C)NC(=O)[C@@H](C)NC(=O)[C@H](Cc1ccc(O)cc1)NC(=O)[C@H](CO)NC(=O)[C@H](Cc1c[nH]c2ccccc12)NC(=O)[C@H](Cc1cnc[nH]1)NC(=O)C1CCC(=O)N1 (stereo partly specified) [Alarelin Acetate]	1.06	inactive: 1.19	1.52
Brc1c(NC2=NCCN2)ccc2nccnc12 [Brimonidine Tartrate]	1.09	inactive: 1.29	1.48
CCOc1ccc(NC(C)=O)cc1 [Phenacetin]	1.24	inactive: 0.78	1.17
C[C@@H](CN1CC(=O)NC(=O)C1)N1CC(=O)NC(=O)C1 [Dexrazoxane HCl (ICRF-187, ADR-529)]	1.26	inactive: 0.948	0.743
CC(C)c1nc(N(C)S(C)(=O)=O)nc(-c2ccc(F)cc2)c1/C=C/[C@@H](O)C[C@@H](O)CC(=O)O [Rosuvastatin Calcium]	1.08	inactive: 0.675	2.38
CC(C)n1c(/C=C/C(O)CC(O)CC(=O)O)c(-c2ccc(F)cc2)c2ccccc21 (stereo unspecified) [Fluvastatin]	0.73	inactive: 0.695	3.19
CCN(CC)CC(=O)Nc1c(C)cccc1C [Lidocaine]	1.06	inactive: 1.3	1.11
CN/C(=N\CCSCc1nc[nH]c1C)NC#N [Cimetidine]	1.18	inactive: 1.3	1.52
CCN(Cc1ccncc1)C(=O)C(CO)c1ccccc1 (stereo unspecified) [Tropicamide]	1.02	inactive: 0.713	1.21
C[C@@H](O)[C@H]1C(=O)N2C(C(=O)O)=C(S[C@@H]3CN[C@H](CNS(N)(=O)=O)C3)[C@H](C)[C@H]12 [Doripenem Hydrate]	1.09	inactive: 1.1	1.47
COc1cc(C(C)=O)ccc1OCCCN1CCC(c2noc3cc(F)ccc23)CC1 [Iloperidone]	1.02	inactive: 1.19	1.09
C[N+](C)(C)CC(=O)O [Betaine]	1.07	inactive: 1.04	1.42
